Some of the results follow. Sequences were assembled here from the parent chain. Values near 0.05 are background.
B1: TEV protease; numbered along this chain (parent)
chain: MGESLFKGPRDYNPISSSICHLTNESDGHTTSLYGIGFGPFIITNKHLFRRNNGTLVVQSLHGVFKVKDTTTLQQHLVDGRDMIIIRMPKDFPPFPQKLKFREPQREERICLVTTNFQTKSMSSMVSDTSCTFPSGDGIFWKHWIQTKDGQCGSPLVSTRDGFIVGIHSASNFTNTNNYFTSVPKNFMELLTNQEAQQWVSGWRLNADSVLWGGHKVFMVKPEEPFQPVKEATQL

Variants of: B1
Experiment: raw area under fraction-flipped curve 0-4 h after induction (AUC4h, not background-subtracted), DNA-recorder readout of cleavage of the substrate (dimensionless); higher = more cleavage of the substrate by the protease variant
Details: temperature: 34 °C; time window: 0-4 h after rhamnose induction
Description: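 In vivo DNA recorder in E. coli TOP10(DE3) ΔrhaA at 34 °C. Each TEVp single-site mutant (parent TEVp 0) is paired with a single-site variant of the 7-mer TEVs (canonical ENLYFQ|S). The substrate sits between flexible linkers in a Bxb1-sfGFP-TEVs-SsrA fusion, so cleavage stabilises Bxb1 and speeds flipping of a recombination array, read by NGS. The value is the raw area under the fraction-flipped curve over 0-4 h after rhamnose induction (AUC4h), with ≥20 reads per time point. It is not background-subtracted; inactive controls average about 0.047.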
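Also: Bxb1 expression induced with 0.2% (w/v) L-rhamnose at OD600 near 0.5, cultures sampled hourly, flipped fraction per protease–substrate barcode pair counted by paired-end Illumina sequencing.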

| Variant | area with substrate ENAYFQS | area with substrate ENCYFQS | area with substrate ENDYFQS | area with substrate ENEYFQS | area with substrate ENFYFQS | area with substrate ENGYFQS | area with substrate ENHYFQS | area with substrate ENIYFQS | area with substrate ENKYFQS | area with substrate ENMYFQS | area with substrate ENNYFQS | area with substrate ENPYFQS | area with substrate ENQYFQS | area with substrate ENRYFQS | area with substrate ENSYFQS | area with substrate ENTYFQS | area with substrate ENVYFQS | area with substrate ENWYFQS | area with substrate ENYYFQS |
| --- | --- | --- | --- | --- | --- | --- | --- | --- | --- | --- | --- | --- | --- | --- | --- | --- | --- | --- | --- |
| G54T | 0.0474 | 0.0638 | 0.0505 | 0.0549 | 0.0466 | 0.0521 | 0.0574 | 0.0886 | 0.0522 | 0.0503 | 0.0425 | 0.0544 | 0.0577 | 0.0529 | 0.0582 | 0.0639 | 0.06 | 0.0652 | 0.0478 |
| D137C | 0.0522 | 0.0754 | 0.0737 | 0.056 | 0.0685 | 0.0886 | – | – | – | 0.0941 | 0.065 | 0.0495 | – | 0.0312 | 0.0704 | 0.0652 | 0.0716 | – | 0.0496 |
| N206T | 0.0765 | – | 0.0659 | 0.0592 | 0.0608 | 0.0574 | – | – | – | 0.0796 | 0.0512 | – | 0.0581 | 0.0602 | 0.0581 | 0.0536 | 0.0687 | – | – |
| G213M | 0.0502 | 0.0536 | 0.0773 | 0.0574 | 0.0534 | – | – | 0.0628 | – | – | – | 0.0547 | 0.0577 | 0.0604 | 0.0603 | 0.0555 | 0.0652 | – | 0.0545 |
| P222Y | 0.0592 | 0.0713 | 0.0583 | 0.0471 | – | – | 0.114 | 0.108 | – | – | – | – | 0.0576 | 0.0651 | 0.0532 | 0.0819 | 0.0755 | 0.0622 | 0.0643 |
| V126R | 0.0668 | 0.0626 | 0.0677 | – | 0.0624 | 0.0765 | 0.0638 | 0.122 | 0.0884 | 0.0257 | 0.0507 | 0.0502 | 0.0621 | 0.0588 | 0.0654 | 0.0592 | 0.0769 | 0.0512 | – |
| I110M | 0.0406 | 0.0542 | 0.0558 | 0.0644 | 0.0538 | 0.061 | – | 0.0698 | – | 0.0638 | 0.0679 | 0.0509 | 0.0621 | 0.0592 | 0.0777 | 0.0523 | 0.0645 | – | 0.0416 |
| Q194E | 0.0569 | 0.0769 | – | 0.0551 | 0.0729 | 0.041 | 0.0614 | 0.117 | – | – | 0.0587 | 0.0464 | 0.0613 | 0.0628 | 0.0715 | – | 0.0767 | – | – |
| R109H | 0.0485 | – | 0.0639 | 0.0549 | 0.0484 | 0.0549 | – | 0.121 | 0.096 | – | 0.0579 | 0.0436 | – | 0.0626 | – | 0.0656 | – | 0.055 | – |
| H47S | 0.0432 | 0.0454 | 0.0625 | 0.077 | 0.0612 | 0.063 | 0.0714 | 0.0663 | – | 0.0558 | – | 0.0585 | 0.0672 | – | 0.0699 | 0.0459 | 0.0717 | – | 0.0572 |
| Y179T | 0.057 | 0.0733 | 0.054 | 0.0676 | 0.0542 | – | 0.0692 | – | 0.0491 | – | 0.0647 | 0.0668 | 0.0649 | 0.0601 | – | – | – | – | 0.0625 |
| Y179Q | 0.0535 | 0.059 | 0.0676 | – | 0.0499 | 0.0706 | 0.0811 | 0.0434 | 0.0671 | 0.062 | 0.0612 | – | 0.0615 | 0.0547 | 0.0696 | 0.0615 | 0.0499 | – | 0.0413 |
